# Results taken from the supplement of paper PMC11417369.
# ± gives the standard deviation of the averaged measurements. The list shows a part of the results.
# Test system: PfAP2-G AP2 domain (GST-tagged)
# Experiment: gcPBM binding intensity (ln(normalized median fluorescence intensity)); higher = stronger DNA binding
# Method in brief: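 GST-fused DNA-binding domains of P. falciparum, expressed in E. coli, were applied at about 25 μg on average for 1 h to an Agilent 4 × 180k array of primer-extended double-stranded 36-bp intergenic genomic probes and negative controls. Binding intensity is the highest Masliner-normalised natural-log median intensity across replicate spots of either probe orientation, measured with Alexa488 anti-GST antibody and a 488 nm scan.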
row,Sequence,gcPBM binding intensity (ln)
1,CATACAATAAATATGGTGCATTTTATGTAACCGTTT [GTGCAC_site9420],10.13 ± 0.092
2,TGAACATATTAAAATTGTACATATGCACAATATGTA [XGTACX_site6801],10.8 ± 0.52
3,AAGGATATAACATACACACACACACGGATATAAATA [CACACA_site7867],10.1 ± 0.11
4,ACTCTCTTATATTAAACACACATATTTATAGGTATA [CACACA_site7302],10.2 ± 0.26
5,ATTTTAGAATAAATTTTTTACATTAAAAAACTATTT [CACACA_negctrl_site1414],9.71 ± 0.12
6,GTATCAAAAGAATACACACACACATACATATATATA [CACACA_site3796],10.2 ± 0.22
7,TTTTAATTAAAACACACACACACATATATATATATA [CACACA_site2291],10.5 ± 0.73
8,TATTTCATCATATTGTGTACTTAATTTATATAATTA [XGTACX_site5753],11.5 ± 0.92
9,TGAAAAATAAATAAATGTACATATATATATATATAC [XGTACX_site7310],10.9 ± 0.49
10,AGAAATACAAAATAAATATAAGAAACAAAATATTTA [CACACA_negctrl_site780],9.63 ± 0.028
11,AAAAGGTTATCAATATGTACATATTTTTTTATTTTT [XGTACX_site3277],11.1 ± 0.61
12,ATAAAAATATGATCAACACACGATTAAATATTCATA [CACACA_site1495],9.97 ± 0.19
13,AGATGTTTTTATATATGTACTTAAATACACAAATAT [XGTACX_site8250],11.4 ± 0.86
14,AAAAAAAAAAAAAACACACACACAAAATAAACAAAC [CACACA_site2720],10.19 ± 0.078
15,GATAAAATGGATGGATGTACATTATTTCCATATAAT [XGTACX_site7781],11 ± 0.47
16,ATATTACTTCCTAAGTGTACAAGTAAGGAGAAAAAA [XGTACX_site3921],11.3 ± 0.92
17,TGATAATTTTTTACATGTACAAGTTTGTTTTTGCAT [XGTACX_site125],11 ± 0.73
18,TTATCGGTATAATATAGTACATATAGATATATAATA [XGTACX_site1440],10.9 ± 0.71
19,TGAATATTTCTATATACACACATATAAATATAAATA [CACACA_site7593],9.85 ± 0.14
20,ATAATGGAGAAATAAGCATGCATTATATTATAAAAA [TGCATGCA_site325],9.66 ± 0.26
21,TAAAAGTTAATATAAACACACAAAAATTAATAAATA [CACACA_site6316],9.94 ± 0.028
22,AATTTCTATTTTGTGAGTACATACTCCTATTATATA [XGTACX_site3210],11.6 ± 1.1

row,Sequence,gcPBM binding intensity (ln)
1,CATATATTTTTGTATAGTACTTTTTTTATTCGTTTT [XGTACX_site1860],11.3 ± 0.91
2,AAAAAAAAAAAAATGTAATTTTTTAATTATTTATAT [GTGCAC_negctrl_site436],9.47 ± 0.11
3,AAAATACATAAACGTTCACACATTTAAGATAACGAG [CACACA_site5345],9.88 ± 0.16
4,GAATGCCTTGAAAATAGTACAATTAAGAAAAAATAC [XGTACX_site8002],11.2 ± 0.81
5,AATAAAAGATCATTTATTCTTTTTTTTCTTTTTAAA [CACACA_negctrl_site1256],9.51 ± 0.26
6,TAAATAAATTTATACACACACACACCGATATATATA [CACACA_site4622],9.975 ± 0.092
7,TGAATAAATATATATACACACATATATGTATATATT [CACACA_site1642],9.72 ± 0.071
8,TATATATATAATATATGTACATATTAATTATGTATA [XGTACX_site5366],11.3 ± 0.62
9,GAGTTTACACTCCCTTGTACATATTCATTTTTATTC [XGTACX_site5208],10.9 ± 0.5
10,AAAGAAATATATACAAAAATATGAACAATTTATTAT [XGTACX_negctrl_site78],10 ± 0.17
11,TTTTCGATGTTGGTAGGATGTATGGTACACGTAGTA [TGCATGCA_negctrl_site61],11.3 ± 0.74
12,TATGAAAATATATATTGTACAGAATCTATAAAAAAT [XGTACX_site8030],10.7 ± 0.42
13,TTTTATTTTATAAAAATAAAAAAAAAATTATTACAA [TGCATGCA_negctrl_site508],9.61 ± 0.15
14,TGAAAATAGTTAATTTGTACACAAAAATTAAGAAAA [XGTACX_site5794],11.2 ± 0.8
15,TATGATTGTTTACGTTGTACAGCTGAATTGTTCTTA [XGTACX_site8114],11.1 ± 0.77
16,GAAAATTTTTGGTGTACACAAAAAAATCCAAAAAAA [CACACA_site5042],11.7 ± 0.87
17,CATAAACTTTTTAACACACACTTATATATATATATA [CACACA_site4747],10.3 ± 0.49
18,AAAAATTCTTTTTCATCTATATGCAGAAAGAAAAAG [CACACA_negctrl_site1201],9.86 ± 0.099
19,TAATTTTTATGAAGAAGTACAAAATCTACTATCATA [XGTACX_site4985],11.1 ± 0.85
20,CTAAATAAAGTTAACACACACATAATATATATATGT [CACACA_site486],9.955 ± 0.021
21,TACATCTGTAATGTGTGTACATATATGTATATATTT [XGTACX_site1805],11.2 ± 0.64
22,GAATTTATGAACTGTGCATGTAAAAAAAACAACAAA [TGCATGCA_site449],10.2 ± 0.25

row,Sequence,gcPBM binding intensity (ln)
1,TATAATAATATATATTGTACACACAAAATGGGAAAA [XGTACX_site3911],11.4 ± 0.93
2,TATATGAAGCTATAGACACACATATAAAAATATAAT [CACACA_site4850],9.92 ± 0.16
3,ATATAAAAAAAAGATGAAAAAAAAAATGAAAGAAAG [CACACA_negctrl_site1266],9.87 ± 0.16
4,AATTGAAAAGAATGAAGTACACATTTGATGATACAT [XGTACX_site5182],11.5 ± 0.98
5,ATATATATAATATGATGTACATATTTATTTATATAT [XGTACX_site7333],11.2 ± 0.54
6,AATGAAATAAAATAAAGTACATATATGTAAAAGTAG [XGTACX_site5650],11.4 ± 0.79
7,TTTTTTTTTTTTTACACACACAAAATATTATCTGTA [CACACA_site5378],9.83 ± 0.42
8,AGTATTATATTTGTATGTACGTAGTAATATATAAAA [XGTACX_site528],11.4 ± 1.1
9,TTTTTCATAAATATATGTACATATATTTTATATAAC [XGTACX_site3402],11.3 ± 0.8
10,ATTTGTTTATAGGCCATAAAATATTTAATTCATTTG [CACACA_negctrl_site1824],10.2 ± 0.21
11,ATTTATATTTATGATACACACACGTATATTCACATA [CACACA_site460],10.4 ± 0.26
12,ATATATATATTTTTATGAGGCATAAGTAATATTTTT [TGCATGCA_negctrl_site317],9.88 ± 0.13
13,AATGTAATATAAATATGTACATAATATATATAATTA [XGTACX_site4762],11.1 ± 0.55
14,TTTTTATTTTTTTAGTATACGTACTAGGTTTGTTCT [XGTACX_site645],11.1 ± 0.79
15,ATATATTTATATATATGTACTTAAAACATTTCGATG [XGTACX_site328],11.2 ± 0.83
16,AAAAAAAATTAATTAGTGCAAAATATATACAAAATA [GTGCAC_site9762],10.06 ± 0.085
17,TAAGAAAATATTTATGTATGCATGTCCTAATATTTC [TGCATGCA_site295],10.4 ± 0.47
18,ATATAAAATATTAGTAGTACCATTAACAGTATTGTT [XGTACX_site5912],11 ± 0.55
19,ATATATATAAACATATGTACACATATATATAATACA [XGTACX_site1848],11.4 ± 0.89
20,TGTATGTATAGAAACACACATACATATATATAATAT [CACACA_site1405],9.905 ± 0.035
21,TATGAAAAAAAAAATACACACACGAGTTGTTATACA [CACACA_site3188],9.84 ± 0.071
22,AATGAAATATGGATGGGTACACATTTGATTTTATTA [XGTACX_site6155],11.4 ± 0.75

row,Sequence,gcPBM binding intensity (ln)
1,ATCATCTATGTTATTACACACGTTATGTTATTATAA [CACACA_site5502],9.94
2,TAACGAATTTAAATTTGTACATATATAAATATATAA [XGTACX_site2168],10.7 ± 0.49
3,TTTAGATAATTCATTACACACATGTATATTTATATA [CACACA_site7602],9.96 ± 0.15
4,TTTTTTTTTTTTTTATGTACGAAAGAAAAGCACATA [XGTACX_site8261],10.9 ± 1.2
5,AAATTATTAAAAAAAAGTACATATATATATATATAT [XGTACX_site8313],11.3 ± 1
6,ATAAATAATATATATACACACATATCTATACATATT [CACACA_site487],9.865 ± 0.064
7,TATATATATAATATTGCACACAAAATTAAAAGTAAA [CACACA_site7889],9.99 ± 0.22
8,AAAAAAAAAAAATGTGTGCACATTATTTCAACTTAA,10.5 ± 0.47
9,TATTTTATCTATTTGTGTACTTATATTTATGCAAAA [XGTACX_site1499],11.4 ± 0.88
10,ATAATACACGATTATTTTCCCTTTATGTAAATATAT [CACACA_negctrl_site1107],10 ± 0.14
11,ATTATCAATATGAAGGTGCATTTAAATAATATTTAC,9.99 ± 0.11
12,AGAAAGAAAGAATACACACACACATATATAAATATC [CACACA_site7716],10.1 ± 0.11
13,TATATATATGTGTTTACACACAATAATGAATTAAAA [CACACA_site4659],9.825 ± 0.078
14,TATGAACATAAATTTGCACACTGGATATAATATATA [CACACA_site2155],10 ± 0.12
15,TATATTCTTTATAGGTGTACTTAATAAATAAAAAAT [XGTACX_site5378],11.5 ± 0.98
16,TACGTAAAAATAGGACGTACTTATTTAGAAACCATA [XGTACX_site2498],11.5 ± 0.81
17,TACAAAATGGGGAACACACACATATATATATATATA [CACACA_site3844],10.6 ± 0.52
18,TTGGTACCTATAGATACACACATATATACCTATATA [CACACA_site5812],10.9 ± 0.61
19,ACTAAACTTTTATGTACACACATATAACATTAATTT [CACACA_site5276],11.5 ± 0.81
20,AAATATTATAGCACCACACACTTATTTTATTTATAT [CACACA_site7133],10.2 ± 0.092
21,TATTTTAATATGTATACATGCATACCTACTCATACA [TGCATGCA_site779],10.1 ± 0.16
22,AACTTGTATTTATACACACACACACTGTCTTTTTTT [CACACA_site7009],10.13 ± 0.057
